Results: PubChem BioAssay AID624417 (National Center for Advancing Translational Sciences (NCATS), 2012)
Out of some 410,000 compounds screened, about 6,400 (1.6%) were called active. The shares of active, inactive and inconclusive entries below differ from those in the screen. The call rests on the fitted dose curve; in most records, active means well fitted inhibition curve with a large enough effect; inconclusive means small, poorly fitted or top-dose-only effect; inactive means no such curve, though single readings can be large or run the other way. No potency is given beside an inconclusive call; the fits are too rough.

The compounds below were run against Glucagon-like peptide 1 receptor (Homo sapiens) (UniProt P43220) (assay: qHTS of GLP-1 Receptor Inverse Agonists (Inhibition Mode)). Conditions: HEK293 GLP-1R CRE-luciferase, luminescence, 24 h, GLP-1R form is constitutively active; series mostly up to 38.3 µM.
Chain of UniProt P43220 (P43220 whole entry, looked up): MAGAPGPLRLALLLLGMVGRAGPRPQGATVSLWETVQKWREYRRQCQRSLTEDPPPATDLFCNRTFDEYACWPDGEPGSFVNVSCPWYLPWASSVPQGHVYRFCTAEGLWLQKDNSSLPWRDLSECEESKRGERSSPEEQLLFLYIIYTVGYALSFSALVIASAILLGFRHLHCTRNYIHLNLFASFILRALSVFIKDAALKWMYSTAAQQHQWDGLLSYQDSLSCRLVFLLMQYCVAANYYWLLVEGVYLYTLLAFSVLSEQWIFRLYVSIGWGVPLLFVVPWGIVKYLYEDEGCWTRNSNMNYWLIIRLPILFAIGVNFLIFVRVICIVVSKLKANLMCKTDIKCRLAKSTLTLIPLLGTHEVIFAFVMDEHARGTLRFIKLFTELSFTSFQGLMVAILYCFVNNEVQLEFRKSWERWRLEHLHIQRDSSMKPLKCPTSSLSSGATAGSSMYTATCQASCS
How it was run: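 Assay principle: reduced luminescence from a cAMP-responsive reporter in HEK293 cells co-expressing a constitutively active GLP-1R. Conditions: 24 hr compound incubation, 37 deg C, 5% CO2.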
Further: nearly all actives have a fitted effect of over 55% in size.
Potency means the concentration at half of the fitted maximal effect; tags describe the fitted curve by direction and shape.

| SMILES | Potency |
| --- | --- |
| Cc1cc(NC(=O)CSc2nc3ccccc3c(=O)n2C(C)c2ccccc2)no1 (configuration not stated) | inconclusive [inhibitor, full curve, poor fit] |
| Cc1cccc(Nc2ccccc2C(=O)OCC(=O)NCc2ccco2)c1C | inconclusive [inhibitor, single point] |
| CC1=C(C(=O)NCc2ccc(Cl)cc2)C2(CCC(C)CC2)OC1=O (configuration not stated) | inconclusive [inhibitor, partial curve, poor fit] |
| COc1ccc(/C=C/C(=O)c2ccncc2)c2ccccc12 | inconclusive [inhibitor, single point] |
| Cc1ccc(S(=O)(=O)c2n[nH]n3c2nc(=O)c2ccccc23)cc1 | inactive |
| Cc1ccc(C)c(NC(=O)c2nc(-c3ccccc3)n(-c3ccccc3)n2)c1 | inactive |
| Cc1ccc(C)n1-c1nnc(N2CCCC(C(=O)NCc3cccc(Br)c3)C2)s1 (configuration not stated) | inconclusive [inhibitor, partial curve, poor fit] |
| COc1cc2c(cc1NC(=O)C(C)OC(=O)C1CC(=O)N(Cc3ccco3)C1)oc1ccccc12 (configuration not stated) | inconclusive [inhibitor, single point] |
| O=[N+]([O-])c1ccc(O)c(/C=N\N=C2c3ccccc3-c3ccccc32)c1 | inactive |
| COc1ccc(C(=O)NC(C)C2CC3CCC2C3)cc1 (configuration not stated) | inconclusive [inhibitor, single point] |
| COc1ccc(CN2CCCC(C(=O)c3ccc(Cl)cc3)C2)cc1Cn1cccn1 (configuration not stated) | inconclusive [inhibitor, partial curve, poor fit] |
| CN1CC(c2ccccn2)C2(SC(=S)N(Cc3ccccc3)C2=O)C12C(=O)Nc1ccccc12 (configuration not stated) | inconclusive [inhibitor, full curve, poor fit] |
| CC1CN(S(=O)(=O)c2ccc(C(=O)Nc3nc(-c4cc5ccccc5o4)cs3)cc2)CC(C)O1 (configuration not stated) | inactive |
| COc1ccc(-n2c(SCC(=O)Nc3ccccc3)nnc2-c2ccoc2C)cc1 | inconclusive [inhibitor, partial curve, poor fit] |
| COc1cccc(-c2c(C(=O)N/N=C/c3cccs3)nnn2-c2nonc2N)c1 | inconclusive [inhibitor, single point] |
| COC(=O)CNC(=O)/C=C/c1cc(Br)ccc1OC | inconclusive [inhibitor, single point] |
| N=c1ccn(Cc2ccc(Cl)c(Cl)c2)cc1 | inconclusive [inhibitor, full curve] |
